The other results are listed elsewhere or left out. Repeats are few or missing, and single values can be far off.
Tests used:
Experiment in all cases: cell count relative to DMSO control; melanoma cells; higher = more viable cells
Conditions in all cases: library dose: standard library concentration; 72 h
G361 = test system: G361
IPC-298 = test system: IPC-298
IST-MEL1 = test system: IST-MEL1
LB2518-MEL = test system: LB2518-MEL
LOXIMVI = test system: LOXIMVI
MEL-HO = test system: MEL-HO
MZ2-MEL = test system: MZ2-MEL
MeWo = test system: MeWo
RPMI7951 = test system: RPMI7951
RVH-421 = test system: RVH-421
SkMel28 = test system: SkMel28
SkMel2 = test system: SkMel2
SkMel30 = test system: SkMel30
SkMel5 = test system: SkMel5
UACC257 = test system: UACC257
UACC62 = test system: UACC62
WM115 = test system: WM115
WM1716 = test system: WM1716
WM1745 = test system: WM1745
WM3526 = test system: WM3526
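Note: cells treated in 1,536-well plates, then fixed and DAPI-stained, with nuclei counted from automated high-throughput microscope images.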

Row | SMILES | cell count (G361) [%] | cell count (IPC-298) [%] | cell count (IST-MEL1) [%] | cell count (LB2518-MEL) [%] | cell count (LOXIMVI) [%] | cell count (MEL-HO) [%] | cell count (MZ2-MEL) [%] | cell count (MeWo) [%] | cell count (RPMI7951) [%] | cell count (RVH-421) [%] | cell count (SkMel28) [%] | cell count (SkMel2) [%] | cell count (SkMel30) [%] | cell count (SkMel5) [%] | cell count (UACC257) [%] | cell count (UACC62) [%] | cell count (WM115) [%] | cell count (WM1716) [%] | cell count (WM1745) [%] | cell count (WM3526) [%]
1 | C#Cc1cccc(Nc2ncnc3cc(OCCOC)c(OCCOC)cc23)c1 [erlotinib] + O=C1NC(=O)/C(=C/c2ccc(-c3ccc(F)cc3O)o2)S1 [AS252424] (first compound 4 µM, partner dose 5 µM) | 66.8 | 71.8 | 98 | 72.1 | 75.9 | 70.6 | 90.5 | 69.4 | 63.4 | 113 | 63.6 | 87.7 | 79.6 | 58.6 | 89.5 | 80.7 | 75.8 | 90.5 | 46.5 | 66.8
2 | COCC[n+]1c2c(n(Cc3cnccn3)c1C)C(=O)c1ccccc1C2=O + Cn1cc(/C=C2\C(=O)Nc3cccnc32)c2ccccc21 [GW441756] (first compound 0.002 µM, partner dose 2 µM) | 98.9 | 59.8 | 53.1 | 45.2 | 102 | 89.8 | 18.8 | 89.5 | 43.2 | 88.7 | 71.1 | 60.7 | 61.1 | 44.9 | 24.9 | 90.5 | 101 | 86 | 77 | 69.5
3 | Clc1ccc(Nc2nnc(Cc3ccncc3)c3ccccc23)cc1 [vatalanib] + OCCn1cc(-c2cnc3nnn(Cc4ccc5ncccc5c4)c3n2)cn1 [PF04217903] (first compound 10 µM, partner dose 5 µM) | 86.5 | 83.9 | 73.9 | 87.8 | 81.6 | 73.8 | 86.3 | 75.9 | 60.7 | 71.9 | 87.5 | 80.2 | 86.4 | 60.2 | 61 | 76.2 | 81.6 | 69.7 | 48.1 | 72
4 | COCC[n+]1c2c(n(Cc3cnccn3)c1C)C(=O)c1ccccc1C2=O + COc1ccc(-c2ccc3c(N4CCOCC4)nc(N4C[C@@H](C)O[C@@H](C)C4)nc3n2)cc1CO [KU0063794] (first compound 0.002 µM, partner dose 0.1 µM) | 72.6 | 41.5 | 41.5 | 25 | 70.1 | 79.1 | 19 | 62.5 | 43.3 | 95.5 | 42.2 | 36.8 | 51.3 | 51.4 | 24.8 | 95.3 | 67.9 | 70.1 | 73.1 | 52.1
5 | COCC[n+]1c2c(n(Cc3cnccn3)c1C)C(=O)c1ccccc1C2=O + COc1cc2ncnc(Nc3ccc(Oc4ccccc4)cc3)c2cc1OC [SrcI1] (first compound 0.002 µM, partner dose 10 µM) | 48.4 | 36 | 39.5 | 12.8 | 57.9 | 83.7 | 19 | 17.5 | 35.5 | 90.3 | 22.6 | 38.4 | 77.3 | 25.8 | 19.4 | 70.7 | 34.7 | 44.4 | 66.2 | 34.7
6 | Cn1c(Nc2ccc(C(F)(F)F)cc2)nc2cc(Oc3ccnc(-c4ncc(C(F)(F)F)[nH]4)c3)ccc21 + O=C(CCCCCCC(=O)Nc1ccccc1)NO [vorinostat] (first compound 0.4 µM, partner dose 0.4 µM) | 25.1 | 51.9 | 78 | 34.1 | 53 | 62.9 | 80.6 | 71.9 | 34.9 | 40.4 | 44.2 | 42.5 | 51.6 | 31.7 | 58.2 | 54.3 | 41 | 64.6 | 62.5 | 38.7
7 | COCC[n+]1c2c(n(Cc3cnccn3)c1C)C(=O)c1ccccc1C2=O + COc1ccc2c(c1)CCC1C2CCC2(C)C(NCCCCCCN3C(=O)C=CC3=O)CCC12 [U73122] (first compound 0.002 µM, partner dose 2 µM) | 125 | 126 | 81.4 | 154 | 93.8 | 113 | 109 | 67.5 | 76.6 | 119 | 87.7 | 110 | 78.2 | 81 | 20.4 | 72.1 | 83.4 | 69.6 | 111 | 55.9
8 | C#Cc1cccc(Nc2ncnc3cc(OCCOC)c(OCCOC)cc23)c1 [erlotinib] + Cn1c(Nc2ccc(C(F)(F)F)cc2)nc2cc(Oc3ccnc(-c4ncc(C(F)(F)F)[nH]4)c3)ccc21 [CHIR265] (first compound 4 µM, partner dose 0.4 µM) | 26.3 | 36.9 | 68.2 | 31.8 | 116 | 61.8 | 53.2 | 55.7 | 35.1 | 46.7 | 39.1 | 48 | 68.1 | 33.7 | 75.6 | 24.3 | 35 | 70.5 | 52.1 | 36.5
9 | Nc1cccc2c1CN(C1CCC(=O)NC1=O)C2=O (stereo not given) [lenalidomide] + COc1cc(Nc2ncc(F)c(Nc3ccc4c(n3)NC(=O)C(C)(C)O4)n2)cc(OC)c1OC [Tamatinib] (first compound 5 µM, partner dose 2 µM) | 58.8 | 102 | 60.7 | 66.1 | 29.4 | 83.6 | 91.9 | 71.9 | 19.6 | 69.3 | 65.4 | 77 | 91.9 | 50.5 | 67.9 | 70.7 | 59.3 | 62.1 | 27.7 | 74.6
10 | C#Cc1cccc(Nc2ncnc3cc(OCCOC)c(OCCOC)cc23)c1 [erlotinib] + Oc1cc(-c2nc(-c3ccccc3)[nH]c2-c2ccncc2)ccc1Cl [L779450] (first compound 4 µM, partner dose 1 µM) | 64.7 | 63 | 80.6 | 56.8 | 81.3 | 72.5 | 78.5 | 67.9 | 64.7 | 56.5 | 54.9 | 15 | 70.2 | 39.6 | 92.5 | 51.4 | 49.1 | 70.7 | 34.1 | 46.9
11 | Clc1ccc(Nc2nnc(Cc3ccncc3)c3ccccc23)cc1 [vatalanib] + CC1(C)NC(=O)N(c2ccc([N+](=O)[O-])c(C(F)(F)F)c2)C1=O [nilutamide] (first compound 10 µM, partner dose 5 µM) | 60.2 | 78 | 64.9 | 73.6 | 66.7 | 60.9 | 71.5 | 51.6 | 61 | 87.4 | 73.8 | 71.9 | 82.2 | 65.2 | 66.4 | 89.5 | 78.6 | 88.3 | 50.4 | 74.6
12 | O=C(CCCCCCC(=O)Nc1ccccc1)NO [vorinostat] + O=C(O)c1ccc(-c2c[nH]c3ncc(-c4ccccc4)cc23)cc1C1CCCC1 [GSK650394] (first compound 0.4 µM, partner dose 0.8 µM) | 45.2 | 73.3 | 72.5 | 97.4 | 90.3 | 65 | 87.1 | 67.7 | 65.5 | 82.3 | 50.2 | 55.6 | 80.3 | 65.3 | 53.3 | 63.2 | 88.2 | 73.4 | 114 | 66.7
13 | Nc1cccc2c1CN(C1CCC(=O)NC1=O)C2=O (stereo not given) [lenalidomide] + CO[C@@H]1[C@H](N(C)C(=O)c2ccccc2)C[C@H]2O[C@]1(C)n1c3ccccc3c3c4c(c5c6ccccc6n2c5c31)C(=O)NC4 [Midostaurin] (first compound 5 µM, partner dose 0.4 µM) | 71 | 81.8 | 81.7 | 94.9 | 56.3 | 88.1 | 93.1 | 82.2 | 68.7 | 94.4 | 87.6 | 74.9 | 88.1 | 57 | 80.3 | 62.3 | 70.7 | 57.9 | 36 | 81.7
14 | OCc1c[nH]c2ccccc12 [Indole-3-carbinol] + O=C(Nc1cccc(Cl)c1)Nc1ncc(CCNc2ncnc3ccsc23)s1 [SNS314] (first compound 4 µM, partner dose 0.004 µM) | 106 | 108 | 67 | 85.4 | 65.5 | 82.5 | 108 | 79.3 | 103 | 97.6 | 66.1 | 94.9 | 126 | 122 | 93.5 | 127 | 70.6 | 82.4 | 103 | 107
15 | COCC[n+]1c2c(n(Cc3cnccn3)c1C)C(=O)c1ccccc1C2=O + CC(C)(C)c1cnc(CSc2cnc(NC(=O)C3CCNCC3)s2)o1 [SNS-032] (first compound 0.002 µM, partner dose 0.05 µM) | 80.8 | 56.1 | 48.9 | 18.9 | 31.5 | 85.5 | 23.1 | 52.4 | 9.3 | 85.5 | 27 | 14.5 | 58.9 | 35.9 | 21.8 | 68.7 | 54.1 | 44.2 | 69.1 | 30
16 | Clc1ccc(Nc2nnc(Cc3ccncc3)c3ccccc23)cc1 [vatalanib] + C[C@@H]1CCN(C(=O)CC#N)C[C@@H]1N(C)c1ncnc2[nH]ccc12 [CP690550] (first compound 10 µM, partner dose 5 µM) | 71.7 | 75.2 | 74.3 | 84.3 | 64.9 | 65.6 | 79.7 | 67.3 | 65.5 | 87.9 | 57.7 | 61.1 | 85.4 | 54.1 | 71 | 78.7 | 82 | 82.1 | 54.7 | 75.7
17 | Cn1c(Nc2ccc(C(F)(F)F)cc2)nc2cc(Oc3ccnc(-c4ncc(C(F)(F)F)[nH]4)c3)ccc21 + COc1ccc2c(c1)CCC1C2CCC2(C)C(NCCCCCCN3C(=O)C=CC3=O)CCC12 [U73122] (first compound 0.4 µM, partner dose 2 µM) | 22.8 | 51.7 | 81.3 | 27.6 | 56 | 61.7 | 71.7 | 30.5 | 21.4 | 39.3 | 25.2 | 64.9 | 50 | 36.4 | 54.8 | 34.6 | 29.2 | 54.5 | 51.4 | 28.8
